# Results as given in PMC12136788.
# Some of the results follow.
# T1: UNK ZnF1-3 (human, UniProt Q9C0B0 31-174)
# T1 sequence: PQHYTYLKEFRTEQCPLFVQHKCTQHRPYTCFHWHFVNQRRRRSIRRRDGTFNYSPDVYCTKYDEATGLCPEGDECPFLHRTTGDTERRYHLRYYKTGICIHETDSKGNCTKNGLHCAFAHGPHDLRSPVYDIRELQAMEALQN
# B1: 154959545_154962785_857_3pUTR_ENSMUSG00000042751_ENSMUST00000043313|mouse|control|control (ssRNA)
# RNA: GGGAGUUCUACAGUCCGACGAUCGAUGUACAGCUGACUCUUGAGGAUGUAAUCGAUGACUGGCUGGGACAGGUAAUCCACAACAUGGCCGUCCCCAUGCUGCAGGGCCAGCCUGCUCUUGGUGGAGCUGACUACAGACAUGGGCAACAGAGGAUUGAGCAUCA
# B2: chr2:69705335:69705336:+_ENSMUSG00000068882_ENSMUST00000090852|mus_hu|FALSE|FALSE (ssRNA)
# RNA: GGGAGUUCUACAGUCCGACGAUCUUGACCUUUAUCUUCUAACCAUUCUUUUAUGUCAUCAAGAGUUGCAUCAGUUGGGAAGCCUUUAAUAUAAACAGAUCUGUUUUUUACAUCAUUUUUAUACUCAUCAGUCACUUCAGGUAGCAACAGAGGAUUGAGCAUCA
# B3: chrX:71549400:71549401:+_ENSMUSG00000019087_ENSMUST00000019231|mus_mus|FALSE|FALSE (ssRNA)
# RNA: GGGAGUUCUACAGUCCGACGAUCAGUAGGAAGAGGACAAACCUUUCCAUCCACUGUGUCACAAAACAGAAACAUGACAACCUAGACACCAAUACUCCCUCAAUUCCUCUCAGGUGUAUGUCACACAAUCUGGGUCAAAGUGAUCAACAGAGGAUUGAGCAUCA
# B4: 62134705_62139040_4542_CDS_ENSMUSG00000018501_ENSMUST00000155712|mouse|control|control (ssRNA)
# RNA: GGGAGUUCUACAGUCCGACGAUCUGAGCUCACUGCACCUGAUGUGGUAACUGCUGGCAGAUUGAAGAUCUCUGUUCCUGGCUGAGCAGCUGCCAUAUCAGAGUCACCUCCACCAGAAGAGUUCAACUUACGAAAAAUUUCCUGCAACAGAGGAUUGAGCAUCA
# B5: chr3:123074269:123074270:-_ENSMUSG00000028114_ENSMUST00000029759|perfect_dup|FALSE|FALSE (ssRNA)
# RNA: GGGAGUUCUACAGUCCGACGAUCGCGUCUUCUACCAAGACAAAAAUGUUCUAUUAUAUGAAAAAUUUCUACUGGUUUUUCUAUAUUGCCAAUCUCAGGUUCUUCUGUGAUAAUUAAGUCAAUGUCAACAUUAGCAUGAAUGAACAACAGAGGAUUGAGCAUCA
# B6: 124406771_124406891_1735_3pUTR_ENSMUSG00000040010_ENSMUST00000045557|mouse|control|control (ssRNA)
# RNA: GGGAGUUCUACAGUCCGACGAUCAGUUUUCUUUCACAGCCACUGUGGACACCUGACGUUUGAGGGACAGUGGAUUGUGUUAGGCGGCUGGUGGUGCUCACUGGAGCUGUGGGGCUGACAGGCCUGGCCGCUGAUCUUCCAAAGCAACAGAGGAUUGAGCAUCA
# B7: 95749731_95749851_1752_3pUTR_ENSMUSG00000015749_ENSMUST00000165307|mouse|control|control (ssRNA)
# RNA: GGGAGUUCUACAGUCCGACGAUCUGGCACGGCCACCCAGAGACCGCUCCACGGCAAGUCUGGCCUUAGAAAGGGACAGGCUCCUUAAAGGGCCCUGAACUGUCACUGAGCAGAACUGAGUCCAUGACCUGCCUCUGAAGAGAACAACAGAGGAUUGAGCAUCA
# B8: chr10:35314101:35314102:-_ENSG00000108094_ENST00000537177|hu_mus|FALSE|FALSE (ssRNA)
# RNA: GGGAGUUCUACAGUCCGACGAUCUUCACCUGUACAGAGAUAAUGCAACCAUGUCAGCUUCCGUCCACUGAAAUGCUGGCUAUAAAACAAUUCAAACAUCUGUACACUUUUCUCUAGCUCUUGGGGAAUUGCAAAUGUAGAUGACAACAGAGGAUUGAGCAUCA
# B9: 120978192_120978312_3978_3pUTR_ENSG00000164109_ENST00000296509|human|control|control (ssRNA)
# RNA: GGGAGUUCUACAGUCCGACGAUCGUGAUCUGUUACAGGACUGGUAAGCUACAACCCUGGGGCCGAAGCAAACAGCCAUGUUUUUUUCUUAUUGGAACACACUCACGCUCAUUCAUUUAUGUAUUGUCUAUAGCUGCUUUCAGCCAACAGAGGAUUGAGCAUCA
# B10: chr14:57341393:57341394:-_ENSMUSG00000021938_ENSMUST00000022507|mus_mus|FALSE|FALSE (ssRNA)
# RNA: GGGAGUUCUACAGUCCGACGAUCUAUGAAUAGUGAGACUCUAUAUGAAAUGUAAGCAACAACUCUAACUUACACAGGAUCUAUGGUUUAUACAAUCUUAACCCCCAUGCCUCCCACCCACUAGUAUACUACAGUAUGUGUCCCCAACAGAGGAUUGAGCAUCA
# B11: 183601471_183601784_1791_CDS_ENSG00000218336_ENST00000511685|human|control|control (ssRNA)
# RNA: GGGAGUUCUACAGUCCGACGAUCAUCACACUCGGUGCCCUUCCAGCCGCUGAAACACAGGCAGCGGCCCUUGGAGUACUGCCCGUUGCCACUACAUAACACUGGACAGGCGGCUCUUGAACAAUCCGGACCCAGAAAUCCUGGCAACAGAGGAUUGAGCAUCA
# B12: 77829102_77831656_1509_CDS_ENSMUSG00000037791_ENSMUST00000049167|mouse|control|control (ssRNA)
# RNA: GGGAGUUCUACAGUCCGACGAUCAUCUACUUUGACAACAUGUUGUGAAAUGGUGUCCUGGAACCGAUCAAACACCUGGCACCGAUUGCUCAGAGUCAGGUUCUUCUGGUUCAGCACCACAUGUUCGAUGUGAUUCGGACACAUCAACAGAGGAUUGAGCAUCA
# B13: chr2:179988524:179988525:-_ENSG00000187231_ENST00000428443|hu_hu|FALSE|FALSE (ssRNA)
# RNA: GGGAGUUCUACAGUCCGACGAUCUAAAGUUUGCUGAAUCGAUGCUCCAUCAGCUGGUGCUACAUCUACGCACAACAUCCCUAAUAAGCCAUCCAACUGCUGAGACAAAUCUUGGGCAACACCAUGAAAUUCAAGAGCUGCUUGCAACAGAGGAUUGAGCAUCA
# B14: chr2:32989838:32989839:-_ENSMUSG00000038831_ENSMUST00000042615|mus_mus|FALSE|FALSE (ssRNA)
# RNA: GGGAGUUCUACAGUCCGACGAUCCAUUUCCAUUCAAUCUGGUCUUCCUGGAAGAACCAAUGCACACGAUUGUAUUCAGGAGUAGGGGAGAGAUAGGGUCUUGCCAAAGUUGGCUUGUGAGGUGGUAAUUAUUUGGUCAUUGACCAACAGAGGAUUGAGCAUCA
# Biological target: T1, UNK ZnF1-3
# Experiment: nsRBNS (natural sequence RNA bind-n-seq); RBNS binding buffer (assumed for nsRBNS): 25 mM Tris pH 7.5, 150 mM KCl, 3 mM MgCl2, 0.01% Triton X-100, 500 ug/ml BSA, 20 U/ml SUPERase-In, 4 C; UNK is unkempt and MSI1 is Musashi-1; names of the RNAs are library labels; protein concentration not given here; high values mean tight binding
row,Binder,binding signal [enrichment R]
1,B1,0.904
2,B2,1.11
3,B3,1.14
4,B4,0.794
5,B5,1.05
6,B6,1.07
7,B7,0.813
8,B8,1.14
9,B9,0.779
10,B10,1.4
11,B11,0.725
12,B12,0.273
13,B13,1.2
14,B14,1.42
